In paper PMC4336329 (PLoS ONE, 2015):
The whole screen tested about 310,000 compounds, of which about 2,200 (0.71%) showed an effect of 50% or more. Effects have a minus sign here. Some of the results follow.

What follows are compounds tested against human ether-à-go-go-related gene (hERG) potassium channel (human, UniProt Q12809) (assay: primary screen, population patch clamp on CHO cells stably expressing hERG).
Chain of human ether-à-go-go-related gene (hERG) potassium channel (Q12809 whole entry, looked up): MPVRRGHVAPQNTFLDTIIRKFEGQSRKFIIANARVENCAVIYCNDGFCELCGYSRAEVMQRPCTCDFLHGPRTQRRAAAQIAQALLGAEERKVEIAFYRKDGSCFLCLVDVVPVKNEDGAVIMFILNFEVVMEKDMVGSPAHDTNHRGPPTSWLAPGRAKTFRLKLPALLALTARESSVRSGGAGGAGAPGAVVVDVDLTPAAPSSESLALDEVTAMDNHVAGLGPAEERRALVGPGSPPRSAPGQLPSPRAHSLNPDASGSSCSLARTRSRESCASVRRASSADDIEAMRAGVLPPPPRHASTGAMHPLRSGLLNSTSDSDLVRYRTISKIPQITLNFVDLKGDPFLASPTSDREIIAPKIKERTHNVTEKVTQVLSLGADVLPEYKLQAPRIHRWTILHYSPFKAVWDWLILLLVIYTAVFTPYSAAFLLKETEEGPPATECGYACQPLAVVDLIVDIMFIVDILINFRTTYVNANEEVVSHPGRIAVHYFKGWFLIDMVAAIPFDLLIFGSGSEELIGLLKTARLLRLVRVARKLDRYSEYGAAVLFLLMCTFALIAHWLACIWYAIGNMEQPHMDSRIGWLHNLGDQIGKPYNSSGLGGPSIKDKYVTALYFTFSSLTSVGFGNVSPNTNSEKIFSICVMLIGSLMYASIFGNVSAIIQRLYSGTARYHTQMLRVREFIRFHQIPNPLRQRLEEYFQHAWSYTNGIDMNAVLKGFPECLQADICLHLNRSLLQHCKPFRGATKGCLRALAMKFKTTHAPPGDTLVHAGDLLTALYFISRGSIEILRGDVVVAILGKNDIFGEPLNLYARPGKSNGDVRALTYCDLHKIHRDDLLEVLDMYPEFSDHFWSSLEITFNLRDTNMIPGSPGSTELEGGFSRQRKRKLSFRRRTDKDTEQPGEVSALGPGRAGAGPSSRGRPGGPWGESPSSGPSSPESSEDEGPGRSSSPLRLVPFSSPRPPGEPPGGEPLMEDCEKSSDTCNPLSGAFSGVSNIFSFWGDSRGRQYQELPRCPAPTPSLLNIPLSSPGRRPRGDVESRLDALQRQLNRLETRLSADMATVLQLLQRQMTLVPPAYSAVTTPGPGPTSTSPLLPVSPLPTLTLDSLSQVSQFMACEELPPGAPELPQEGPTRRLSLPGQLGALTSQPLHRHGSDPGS

Row | Compound | hERG current change (%, negative = inhibition) at 1uM [%]
1 | Cc1ccc(-c2csc(NC(=O)CSc3nnc4c(n3)[nH]c3ccccc34)n2)cc1 | 17.3
2 | C1CC1Cc1noc(CN2CCN(CC3CC3)CC2)n1 | 8.29
3 | COc1cc(OC)c2c(OC)cccc2n1 | 6.37
4 | N#C/C(=C(/O)CCCl)c1ccccn1 | 21.1
5 | CC(=O)N1CCc2cc(S(=O)(=O)CCC(=O)Nc3ccccc3F)ccc21 | 16.1
6 | CN1C(=O)N(C)C(=O)C2(Cc3cc([N+](=O)[O-])ccc3N(C)C2)C1=O | 10.7
7 | CCN(CC(=O)Nc1ccc(NC(C)=O)cc1)C(=O)/C=C/c1cn(Cc2ccccc2)nc1-c1cccnc1 | -10.3
8 | COc1ccc(CNC(=O)CN(Cc2cccs2)C(=O)CCC(=O)Nc2ccccn2)cc1 | -15.9
9 | CC(C)CC1(C)NC(=O)N(CC(=O)Nc2cccc(S(=O)(=O)N(C)c3ccccc3)c2)C1=O (centres unmarked) | 5.97
10 | COC(=O)Nc1ccc(SCC(=O)c2ccccc2)cc1 | 9.03
11 | CS(=O)(=O)N1CCC(C(=O)Nc2ccc(C(N)=O)cc2)CC1 | 13.9
12 | O=C(COC(=O)c1ccc(N2CCOCC2)c([N+](=O)[O-])c1)Nc1ccc2c(c1)OCO2 | 7.45
13 | COc1ccc(C(=O)Nc2nnc(S(=O)(=O)N3CCC(C)CC3)s2)cc1OC | 5.73
14 | Cc1ccc(C(=O)NCc2ccncc2)cc1S(=O)(=O)N1CCCCC1 | 9.32
15 | COc1cc(C)c(S(=O)(=O)Nc2ccccc2F)cc1C | 4.78
16 | O=C(N=C1SC2CS(=O)(=O)CC2N1c1cccc(Cl)c1Cl)C1CCCO1 (centres unmarked) | 11.5
17 | COc1cc(OC)c(OC)cc1/C=N/Nc1ccc(Cl)nn1 | 12.7
18 | O=C1C=CC(=O)N1N(c1ccccc1)c1ccccc1 | 2.18
19 | O=C1CCc2ccc(NS(=O)(=O)c3ccc(F)cc3)cc2N1 | 9.6
20 | COCCN(C(=S)Nc1cc(C)ccc1C)C(C)c1cccnc1 (centres unmarked) | 6.21
21 | OCC1OC(n2cnc3c(NC4CCCC4)ncnc32)C(O)C1O (centres unmarked) | 4.43
22 | CC1=NN(C(=O)Cn2nc([N+](=O)[O-])c(Br)c2C)C(O)(C(F)(F)F)C1 (centres unmarked) | 4.9
23 | CCOC(=O)C(O)(CC(=O)c1ccc(OC)cc1)C(F)(F)F (centres unmarked) | -5.47

Row | Compound | hERG current change (%, negative = inhibition) at 1uM [%]
24 | Cc1cccc(C(=O)O/N=C(\c2ccccc2)c2cccnc2)c1 | 8.7
25 | COCCNC(=O)C(=O)NCC(c1ccc2c(c1)OCO2)N1CCN(c2ccc(F)cc2)CC1 (centres unmarked) | -5.97
26 | CC(=O)Nc1ccc(N2C(=O)CC(Sc3nccc(C)n3)C2=O)cc1 (centres unmarked) | 9.58
27 | NC(=O)C1(N2CCCCC2)CCN(Cc2ccccc2)CC1 | 6.94
28 | NS(=O)(=O)c1ccc(NC(=S)NCc2ccccc2)cc1 | 15.3
29 | Cc1cc(C)cc(C(=O)Nc2cccnc2)c1 | 11.8
30 | COc1ccc(S(=O)(=O)N2CCOCC2)c2ccccc12 | 7.15
31 | CC(C)C(NC(=O)C1CCC(C(C)(C)C)CC1)C(=O)NCCc1ccc(S(N)(=O)=O)cc1 (centres unmarked) | 27.2
32 | COc1ccc(NC(=O)Cn2cc(C(=O)C3CC3)c3ccccc32)cc1 | 16
33 | COc1cccc(C2CC(=O)Nc3cc(OC)c(OC)cc32)c1 (centres unmarked) | 3.46
34 | CC1C2CC(C(CN(C)C)/C2=N/O)C1(C)C (centres unmarked) | -4.21
35 | Cc1ccc(/C(N)=N/OC(=O)N2CCOCC2)cc1 | 6.64
36 | O=C(/C=C/c1ccccc1)Nc1ccc2c(c1)C(=O)NC2=O | 1.61
37 | Cc1ccc(-c2c[n+](CC(=O)Nc3nc(-c4ccccc4)cs3)c3n2CCC3)cc1.[Cl-] | 0.194
38 | COC(=O)c1ccccc1NC(=O)CSc1nnnn1C1CCCCC1 | 2.4
39 | COc1ccc(-n2c(C)csc2=S)cc1 | 12.3
40 | CC(=O)COc1cc2c(-c3cc4ccccc4o3)cc(=O)oc2cc1C | 8.42
41 | Cc1ccn2c(=O)c(C(=O)O)cnc2c1 | 14.4
42 | O=c1[nH]ncc(NCc2ccc(Cl)cc2)c1Cl | 6.71
43 | CCOc1ccc(NC(=O)COc2ccc(C(=O)NCCc3ccccc3)cc2)cc1 | 3.64
44 | Cn1nccc1NS(=O)(=O)c1ccc(NC(=O)C(F)(F)F)cc1 | 12.3
45 | COc1ccc(S(=O)(=O)N[C@@H](CC(C)C)C(=O)O)cc1 | 14.5
46 | CCOCCCn1cnc2c3cc(F)ccc3n(C)c2c1=O | -7.93

Row | Compound | hERG current change (%, negative = inhibition) at 1uM [%]
47 | CS(=O)(=O)N1CCN(C(=O)c2ccc(Br)s2)CC1 | -11
48 | CCCn1nc(C(=O)NCc2ccc3c(c2)OCO3)c2ccccc2c1=O | 11.8
49 | O=C(CSc1ccc(-c2ccccn2)nn1)Nc1ccccc1 | 14.7
50 | CCN(CC)CCn1c2c(c(SCC(=O)Nc3ccc4c(c3)OCCO4)nc1=O)CCCC2 | -3.81
51 | CC(=O)c1cccc(NC(=O)c2ccc(-c3ccccc3[N+](=O)[O-])o2)c1 | 4.61
52 | O=C(O)c1ccc2c(c1)OCCCO2 | 10.6
53 | COCCOc1ccc(C(F)(F)F)cc1NC(=O)COC(=O)c1cc([N+](=O)[O-])ccc1N1CCOCC1 | 4.19
54 | COc1cccc(-c2nc3c(c(=O)[nH]c(=O)n3Cc3ccccc3)n2CCO)c1OC(F)F | 12.8
55 | O=c1[nH]c(=O)n(Cc2ccccc2)c(O)c1/C=N/NCCO | 11.4
56 | CC(C)C1Nc2ccc(C(=O)N3CCN(c4ccccn4)CC3)cc2NC1=O (centres unmarked) | 11.4
57 | COc1ccc([C@@H]2[C@@H]3C(=O)N(C(C)(C)C)C(=O)[C@@H]3[C@]3(CC(C)C)C(=O)N(c4ccc(C(F)(F)F)cc4)C(=O)N23)cc1 | 11.8
58 | O=C(Cn1cc([N+](=O)[O-])cn1)Nc1nc2ccccc2s1 | -41
59 | CCc1ccc(N2CC(C(=O)N/N=C/c3ccccc3OC)CC2=O)cc1 (centres unmarked) | 13
60 | CCC(=O)N(Cc1cc2ccccc2[nH]c1=O)C(C)C | 11.7
61 | COC(=O)c1cc2nc(-c3ccccc3)cc(C(F)(F)F)n2n1 | 22.2
62 | O=S(=O)(c1ccc(N2CCC(c3ccc(Cl)cc3)=N2)cc1)N(CCO)CCO | -12.7
63 | COCCn1c(SCC(=O)Nc2ccc(N3CCOCC3)cc2)nc2ccccc21 | 6.27
64 | C/C(NCC(C)(C)CN(C)C)=C(/C#N)C(=O)NCc1ccccc1 | 0.126
65 | O=C(O)c1ccc(S(=O)(=O)c2ccc3c(c2)C(=O)N(NC(=O)c2cccnc2)C3=O)cc1 | 1.42
66 | CC[N+]1(CC)CC2=Cc3c(ccc4ccccc34)C(C)C2C1.[Br-] (centres unmarked) | 9.72
67 | CC(=O)c1cccc(NC(=S)NC(=O)C(C)C)c1 | 12.3
68 | COC(=O)CC1C(=O)NCCN1C(=O)CSc1nc2ccccc2o1 (centres unmarked) | 11.4
69 | COc1ccc(S(=O)(=O)N(C)CC(=O)O)c2ccccc12 | 12.3

Row | Compound | hERG current change (%, negative = inhibition) at 1uM [%]
70 | Clc1ccccc1-c1cc(COc2ccc3ccccc3c2)no1 | 2.49
71 | NC(=O)c1nn(-c2ccccc2)nc1NC(=O)CN1CCCCC1 | 8.45
72 | COc1cc(CNn2c(C)n[nH]c2=S)cc(Br)c1OCc1ccc(F)cc1 | 10.3
73 | CC(C)(C)NC(=O)CSc1nnc(C2CC2)n1Cc1ccccc1 | 10.2
74 | O=c1oc2ccccc2c2c1ncn2-c1ccccc1 | -0.898
75 | C=CCOC(=O)C1=C(C)NC(SCC(=O)N(CC)CC)=C(C#N)C1c1ccccc1 (centres unmarked) | -5.43
76 | Cc1cccc(NC(=O)/C(C#N)=C\c2cc(C)n(-c3ccc(C(=O)O)cc3)c2C)c1 | 13.1
77 | Cc1cc(C)cc(NC(=O)Nc2ccc(NC(=O)c3ccccc3O)cc2)c1 | 9.18
78 | O=C(COC(=O)c1nc(Cl)ccc1Cl)c1ccc[nH]1 | 12.3
79 | CCOc1ccccc1NC(=S)NC1CC2CCC1C2 (centres unmarked) | 10.7
80 | O=C(O)Cc1ccc2c(c1)N(S(=O)(=O)c1cccc(C(F)(F)F)c1)CC(C(=O)O)O2 (centres unmarked) | 14.5
81 | Br.Cn1c(=N)n(CC(=O)c2ccc(Br)s2)c2ccccc21 | 1.35
82 | O=S(=O)(Nc1ccc(Cl)cc1)c1ccc2c(c1)CCO2 | 7.39
83 | Cc1ccc(C)c(-n2cc(-c3ccc(Cl)cc3)nc2SCC(=O)NC2CCS(=O)(=O)C2)c1 (centres unmarked) | 10.3
84 | CC1CCN(c2cc(N3CCOCC3)c(F)cc2[N+](=O)[O-])CC1 | 12
85 | COc1cccc(NC(=O)CN(C)C(=O)c2ccc(OCc3ccccc3)c(OC)c2)c1 | 6.57
86 | Nc1nc2nc(-c3ccccc3)cc(C(F)(F)F)c2s1 | 8.84
87 | N#C/C(C(=O)N1CCCC1)=C1/N=C(N)c2ccccc21 | 17.8
88 | O=C(CSc1ncnc2c1oc1ccccc12)N1CCCc2ccccc21 | -1.75
89 | C=CCNC(=O)c1cc(Cl)ccc1Cl | 9.16
